The assay deals with full-length human HSPA1B tagged at its C-terminus with 6 His residues (human, UniProt P0DMV9). The experiment in a line: pull-down.

B1: GST-UBQLN2 P509S (natural protein)
chain: not shown
Turning to B1, the binding result was “binds”.

B2: GST-P497S-UBQLN2 (natural protein)
chain: not shown
B2: the binding result was “binds”.

B3: GST-UBQLN2 P506T (natural protein)
chain: not shown
Consider B3, for which the binding result was “binds”.

B4: GST-UBQLN2 P525S (natural protein)
chain: not shown
As to B4, the binding result is reported as “binds”.

B5: GST-UBQLN2 P497H (natural protein)
chain: not shown
Consider B5, for which the binding result is given as “binds”.

These data come from publication PMC9792439 (Biochimica et biophysica acta. General subjects, 2022).
